# Laboratory results: the supplement of paper PMC6660600, “Odorant Inhibition in Mosquito Olfaction” (iScience, 2019)
# Counter-ions that a name gives are not always drawn. The list shows a part of the results. Most values come without repeats; read them as rough.
# System: CquiOR32-CquiOrco
# Experiment: current response class (signed ordinal: positive = inward/excitatory, negative = outward/inhibitory) (ordinal score (-3..3)); higher = stronger inward (excitatory) current
# Conditions: 1 mM; holding potential (mV): -80
# Description: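 Xenopus oocytes co-expressing Culex quinquefasciatus CquiOR32 with CquiOrco were challenged by two-electrode voltage clamp (holding -80 mV) with a panel of about 200 odorants at 1 mM source dose (2 s stimulus). The response was scored qualitatively: + to +++ for weak to strong inward currents, x to xxx for weak to strong outward (inhibitory, reverse) currents, +/- and x/- for very weak currents (S/N 2-5), and - for no response. Scale: negative = stronger reverse/inhibitory current.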
row,Structure (SMILES),current response class
1,Cc1cccc(C(N)=O)c1 [3-methylbenzamide],active: 2
2,CCCCCC(O)CC (stereo not given) [3-octanol],inactive: 0
3,CCCCCC/C=C\CCCCCCCC(=O)O [palmitoleic acid],inactive: 0
4,CN(C)C [trimethylamine],inactive: 0
5,CC(C)=CCC/C(C)=C/C=O [citral],inactive: 0
6,Cc1ccc(O)cc1 [4-methylphenol],inactive: 0
7,O=CCc1ccccc1 [phenylacetaldehyde],active: 1
8,CC(O)C(=O)O (racemic) [(±)-lactic acid],inactive: 0
9,"CC(C)=CCC/C(C)=C/CC/C(C)=C/CO [(E,E)-farnesol]",inactive: 0
10,CCC(O)CC [3-pentanol],active: 1
11,C=CC(C)(CCC=C(C)C)OC=O (stereo not given) [linalyl formate],active: -1
12,CC(C)=CCC/C(C)=C\CO [nerol],active: -2
13,CCCCCCCCC=O [nonanal],inactive: 0
14,Cc1c[nH]c2ccccc12 [skatole],inactive: 0
15,"CC(=O)c1cc(C(C)(C)C)c(O)c(C(C)(C)C)c1 [3,5-di-tert-butyl-4-hydroxyacetophenone]",inactive: 0
16,CCCCCCCCCO [1-nonanol],inactive: 0
17,C=CCc1ccc(OC(C)=O)c(OC)c1 [eugenyl acetate],inactive: 0
18,Cc1cccc(C(C)(C)C)c1O [2-tert-butyl-6-methyl-phenol],active: -1
19,CC(O)c1ccccc1 (stereo not given) [1-phenylethanol],active: 2
20,C=CC(C)(O)CCC=C(C)CCC=C(C)C (mixture of isomers) [nerolidol],inactive: 0

row,Structure (SMILES),current response class
1,CC(C)C(=O)Oc1ccccc1 [phenyl isobutyrate],inactive: 0
2,"CC(O)C(C)O (stereo not given) [2,3-butanediol]",inactive: 0
3,CCCCCCCC=O [octanal],inactive: 0
4,"CC(=O)C(C)=O [2,3-butanedione]",active: 2
5,CCC/C=C/COC(C)=O [(E)-2-hexenyl acetate],inactive: 0
6,CC1=CC[C@@](O)(C(C)C)CC1 [terpinen-4-ol],inactive: 0
7,Cc1cccc(C(=O)Nc2ccccc2C(C)C)c1 [N-(2-isopropylphenyl)-3-methylbenzamide],inactive: 0
8,COC(=O)c1ccccc1O [methyl salicylate],active: 3
9,COC(=O)/C=C(\C)CCC=C(C)C [methyl geranate],inactive: 0
10,CCCCCCCCN [octylamine],inactive: 0
11,CC(C)[C@@H]1CC[C@@H](C)CC1=O [(-)-menthone],inactive: 0
12,C=CC(=C)CCC=C(C)C [β-myrcene],inactive: 0
13,CCCCCCCCCCCCCCCCCC(=O)OCC [ethyl stearate],inactive: 0
14,"CC(=O)CC(C)=O [2,4-pentanedione]",active: 1
15,CCCCCC=O [hexanal],inactive: 0
16,CCOC(=O)CC(C)O (stereo not given) [ethyl 3-hydroxybutanoate],active: 2
17,O=COCCc1ccccc1 [2-phenethyl formate],inactive: 0
18,"Cc1cccc(C)c1O [2,6-dimethylphenol]",inactive: 0
19,CCOC(=O)CCCCCCCCC(=O)OCC [diethyl sebacate],inactive: 0
20,CCCCCCCCCCCCCCCC(=O)OC [methyl palmitate],inactive: 0
